The values below come from PubChem BioAssay AID1347073 (National Center for Advancing Translational Sciences (NCATS), 2019).

Out of some 45,000 compounds screened, about 200 (0.44%) were called active. Not shown: some 7% with an inconclusive outcome. The call rests on the fitted dose curve; in most records, active means well fitted activation curve with a large enough effect; inconclusive means small, poorly fitted or top-dose-only effect; inactive means no such curve, though single readings can be large or run the other way. Some of the results follow.

The assay can be described thus: qHTS of TDP-43 Inhibitors: NCGC Sytravon Library Screen. Further: 0% is about no effect; nearly all actives have a fitted effect of over 55% in size. The conditions noted are these: yeast TDP-43 toxicity rescue, BacTiter-Glo growth, 24 h; series mostly up to 46.1 µM; growth rescue (activation): at the top concentration. Summed up: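 TDP-43-expressing yeast, pregrown in raffinose, seeded at OD600 0.02 in galactose medium with compound for 24 hr at 30 deg C. Growth read by BacTiter-Glo luminescence, so rescue of toxicity appears as activation.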
In general terms: qHTS replaces the single test concentration by a dilution series.
For the molecule `N/C(=N\c1nc2c(c(=O)[nH]1)CCC2)Nc1ccccc1`, the “growth rescue (activation)” value is inactive: -4.01%. As for `Cc1cccc(-c2noc(CNC(=O)c3ccco3)n2)c1`, the “growth rescue (activation)” value is inactive: 13.4%. As to `Brc1ccc(CNCCCSc2nnnn2-c2ccccc2)cc1`, the “growth rescue (activation)” value is inactive: 14.9%.

For `Cc1ccc(S(=O)(=O)N(C)c2c(C)ccc(S(=O)(=O)Nc3ccncc3)c2C)cc1`, the “growth rescue (activation)” value is inactive: 8.83%. In the case of `CCc1nc2ccc(C(=O)NCc3cccs3)cn2c1N(CC)CCN(C)C`, the “growth rescue (activation)” value is inactive: 7.72%. With `CCc1ccc(NC(=O)C(=O)NCCN2CCN(Cc3ccc([N+](=O)[O-])cc3)CC2)cc1`, the “growth rescue (activation)” value was inactive: 12.1%. Consider `COCC(C)NC(=O)C(C)Oc1ccccc1` (configuration not stated), for which the “growth rescue (activation)” value is inactive: -10%. The value for `COc1ccc(NS(=O)(=O)c2cccc(C(=O)NNC(=O)c3cc(C)oc3C)c2)cc1` was inactive: 19.6%; that for `O=[N+]([O-])c1ccc(N/N=C\c2ccccc2OCc2ccccc2)cc1` was inactive: 18.1%; that for `CCOP(=O)(OCC)c1nc(-c2ccc(OC)cc2)oc1N1CCOCC1` was inactive: 4.81%. As to `COc1ccc(C(C)=O)cc1COC(=O)c1cccnc1Cl`, the “growth rescue (activation)” value was inactive: 13.9%. To `CCn1c(CCC(=O)O)nc2cc(S(=O)(=O)N3CCOCC3)ccc21` belongs inactive: 0.0283%. `O=[N+]([O-])c1ccc(N=Nc2c(O)[nH]c3ccc(F)cc23)cc1`: the “growth rescue (activation)” value was inactive: 19.7%. To `Cc1nnc(SCc2c(Cl)cccc2[N+](=O)[O-])s1` belongs inactive: 1.57%; to `CN=C(NC)SC1CC(=O)N(c2ccccc2)C1=O` (configuration not stated), inactive: -1.75%; to `CCOC(=O)N1CCN(CC(=O)Nc2ccc(C)c(Br)c2)CC1`, inactive: 21.8%.

As to `Cc1cc2oc(=O)cc(CN(C)Cc3ccc(OC(F)F)cc3)c2cc1Cl`, the “growth rescue (activation)” value was inactive: 8.6%. To `N/C(=N\OC(=O)Cc1cccs1)c1ccc(Br)cc1` belongs inactive: 6.79%; to `Nc1nonc1C(=O)N/N=C/c1cc2c(cc1[N+](=O)[O-])OCO2`, inactive: -12.5%; to `COc1ccc2ccccc2c1/C=N/Nc1ccc(Cl)c(C(=O)O)c1`, inactive: 13.5%. Take `C=C(C)CN(CC)c1ccc(N2C(=O)CCCC2=O)cc1[N+](=O)[O-]`: the “growth rescue (activation)” value is inactive: 14.2%. To `CCc1ccc2c(c1)NC(=O)C2(C)Cc1ccc(C(F)(F)F)nc1` (configuration not stated) belongs inactive: 24.9%; to `CC(Sc1ccccc1)C(=O)NN=C1CCCC1` (configuration not stated), inactive: 7.16%.

For `O=C(C[n+]1ccc(C(=O)c2ccccc2)cc1)Nc1ccc(C(F)(F)F)cc1`, the “growth rescue (activation)” value is inactive: -15.4%. To `Cc1cc(NC(=O)CSc2nc(-c3ccco3)cc(C(F)(F)F)n2)no1` belongs inactive: 1.69%; to `O=C(NCc1ccccn1)c1nc(Cn2cc([N+](=O)[O-])cn2)no1`, inactive: 3.88%. To `CCCn1c(SC(C(=O)Nc2cc(C)ccc2OC)c2ccccc2)nc2ccccc2c1=O` (configuration not stated) belongs inactive: 18.3%. The value for `COc1cccc(NC(=S)NCc2ccccn2)c1` was inactive: 11.9%; that for `O=C(Nc1nnc(Cc2ccccc2)s1)c1ccccc1` was inactive: 7.15%. As for `c1ccc(C2=Nn3c(nnc3-c3ccco3)SC2)cc1`, the “growth rescue (activation)” value is inactive: 7.22%. To `Cc1ccc(NC(=O)Cn2cnc3cc([N+](=O)[O-])ccc3c2=O)cc1` belongs inactive: -14%.

With `CC1CCCC(NC(=O)COC(=O)[C@@H](NC(=O)c2ccc(F)cc2)C(C)C)C1C` (some centres not stated), the “growth rescue (activation)” value is inactive: 9.52%. The value for `Cc1cc(NC(=O)C2CC(=O)N(c3ccc(Cl)cc3)C2)no1` (configuration not stated) was inactive: -20.7%. On to `Cc1cc(C)c(S(=O)(=O)NC2CC(C)(C)NC(C)(C)C2)cc1C`, for which the “growth rescue (activation)” value was inactive: 2.83%. With `CC1C(=O)Nc2ccc(S(=O)(=O)Nc3ccccc3Br)cc2NC1=O` (configuration not stated), the “growth rescue (activation)” value is inactive: 6.01%. The value for `CCc1ccc(C(=O)/C=C/Nc2ccc(S(=O)(=O)Nc3onc(C)c3C)cc2)cc1` was inactive: -23.8%; that for `COc1ccc(CN2CCNC(=O)C2CC(=O)N(C)Cc2cc(C)no2)cc1OC` (configuration not stated) was inactive: 8.67%; that for `COc1ccc(C2CC(c3ccccc3)=NN2c2ccc(Cl)c(C(=O)O)c2)cc1` (configuration not stated) was inactive: -76.6%. In the case of `CCC1CCC2(CC1)NC(=O)N(CC(=O)NCc1ccccc1Cl)C2=O` (configuration not stated), the “growth rescue (activation)” value was inactive: 8.21%. With `CCOc1ccc(-n2c(-c3ccccc3)nnc2-c2ccccc2)cc1`, the “growth rescue (activation)” value was inactive: 7.92%. To `O=C(NN(c1ccccc1)c1ccccc1)c1ccc([N+](=O)[O-])o1` belongs inactive: 9.49%. The value for `CC1CC(C)CN(C(=O)Cn2c(=O)n(CCCC(=O)NCc3ccco3)c(=O)c3sccc32)C1` (configuration not stated) was inactive: -11.4%; that for `CNC(=O)c1ccc(-c2nc(-c3ccccc3)cs2)cc1` was inactive: 17.2%. To `CCN(C(=O)CSc1nnc(-c2ccc(OC)cc2)n1C(C)C)C1CCS(=O)(=O)C1` (configuration not stated) belongs inactive: 12.9%; to `NC(=O)c1cccc(-c2coc3c(C(=O)NCc4ccccc4)cccc23)c1`, inactive: 11.6%. On to `COc1ccc(CCNC(=O)C2CC(=O)N(c3ccc(C)cc3)C2)cc1` (configuration not stated), for which the “growth rescue (activation)” value is inactive: -0.881%. As for `CCOc1ccc(S(=O)(=O)N2CCN(S(=O)(=O)c3ccc(C(C)=O)cc3)CC2)cc1`, the “growth rescue (activation)” value is inactive: 20.8%.

Regarding `Cc1cccc(NC(=O)C2CCN(S(=O)(=O)c3cccc4nonc34)CC2)c1`, the “growth rescue (activation)” value is inactive: 7.43%. To `CCOc1ccc(-n2c([S-])c(C(=O)Nc3ccc(S(=O)(=O)N4CCOCC4)cc3)[n+]3cc(C(N)=O)ccc23)cc1` belongs inactive: 9.27%; to `Cc1ccc(-n2cc(C(=O)O)c(=O)cc2C)c(C)c1`, inactive: -4.17%. To `CCCSc1ncc(Cl)c(C(=O)Nc2sc3c(c2C(=O)NCC)CCCC3)n1` belongs inactive: 2.81%; to `CSc1ncccc1C(=O)OCC(=O)Nc1cccc(S(=O)(=O)N2CCOCC2)c1`, inactive: 9.53%; to `Cc1ccc(C)c(S(=O)(=O)N2CCCN(C)CC2)c1`, inactive: -14.6%. The value for `Cc1ccc(-c2nnc(Nc3ccc(C(=O)N(C)C)cc3)c3ccccc23)cc1S(=O)(=O)NCC1CCCO1` (configuration not stated) was inactive: 4.75%; that for `CC(=O)NC(NC(=S)Nc1cccc(Br)c1)C(Cl)(Cl)Cl` (configuration not stated) was inactive: 32.6%; that for `C=CCn1cc(/C=N/NC(=O)COc2cccc3cccnc23)c2ccccc21` was inactive: 8.03%. In the case of `Cc1cccc(NC(=O)C2CCCN2S(=O)(=O)c2ccc(Cl)cc2)n1` (configuration not stated), the “growth rescue (activation)” value was inactive: 13.8%. To `O=c1[nH]c2ccc(S(=O)(=O)N3CCCC3)cc2[nH]1` belongs inactive: -6.71%; to `CCc1nc2ccc(C(=O)N3CCN(C(=O)c4ccco4)CC3)cn2c1N(C=O)Cc1ccc(OC)cc1`, inactive: -10.7%; to `O=C(NC1CCN(S(=O)(=O)c2ccc(F)cc2)CC1)c1cccnc1`, inactive: 13.4%. To `COc1ccccc1NC(=O)c1cc(-c2cc(OC)c(OC)c(OC)c2)nc2ccccc12` belongs inactive: 18.7%; to `O=C(COc1ccc(Br)cc1Cl)NC(=O)NCc1ccccc1`, inactive: 6.56%. In the case of `CCC1SC2=NC(C)=C(C(=O)OC)C(c3ccc(C)cc3)N2C1=O` (configuration not stated), the “growth rescue (activation)” value was inactive: -1.1%. To `CCOc1cc(N2CCOCC2)c(OCC)cc1NC(=O)COC(=O)[C@@H]1CCCN1S(=O)(=O)c1ccccc1F` belongs inactive: 8.52%; to `Cc1ccc(-c2nnc(N)s2)cc1`, inactive: 26.1%; to `Cn1nc([N+](=O)[O-])nc1S(C)(=O)=O`, inactive: 21.1%.

Take `Cn1c(=O)c2[nH]c(NCC3CCCO3)nc2n(-c2ccccc2)c1=O` (configuration not stated): the “growth rescue (activation)” value was inactive: -10.4%.
